Assay results from the supplement of paper PMC3334620.
Whole data set: some 33,000 sequences, median “E-score (-0.5 to 0.5)” near -0.011, cut for the highest 2% near 0.28. The list shows a part of the results.

These sequences were tested against T1, Gcr1 (UniProt P07261) (assay: PBM E-score (8-mer binding enrichment) (E-score (-0.5 to 0.5)); higher = stronger / more preferred TF binding; most listed sequences are background and not binding sites). Conditions: protein concentration: 100 nM; construct: GST-full length.
T1 sequence: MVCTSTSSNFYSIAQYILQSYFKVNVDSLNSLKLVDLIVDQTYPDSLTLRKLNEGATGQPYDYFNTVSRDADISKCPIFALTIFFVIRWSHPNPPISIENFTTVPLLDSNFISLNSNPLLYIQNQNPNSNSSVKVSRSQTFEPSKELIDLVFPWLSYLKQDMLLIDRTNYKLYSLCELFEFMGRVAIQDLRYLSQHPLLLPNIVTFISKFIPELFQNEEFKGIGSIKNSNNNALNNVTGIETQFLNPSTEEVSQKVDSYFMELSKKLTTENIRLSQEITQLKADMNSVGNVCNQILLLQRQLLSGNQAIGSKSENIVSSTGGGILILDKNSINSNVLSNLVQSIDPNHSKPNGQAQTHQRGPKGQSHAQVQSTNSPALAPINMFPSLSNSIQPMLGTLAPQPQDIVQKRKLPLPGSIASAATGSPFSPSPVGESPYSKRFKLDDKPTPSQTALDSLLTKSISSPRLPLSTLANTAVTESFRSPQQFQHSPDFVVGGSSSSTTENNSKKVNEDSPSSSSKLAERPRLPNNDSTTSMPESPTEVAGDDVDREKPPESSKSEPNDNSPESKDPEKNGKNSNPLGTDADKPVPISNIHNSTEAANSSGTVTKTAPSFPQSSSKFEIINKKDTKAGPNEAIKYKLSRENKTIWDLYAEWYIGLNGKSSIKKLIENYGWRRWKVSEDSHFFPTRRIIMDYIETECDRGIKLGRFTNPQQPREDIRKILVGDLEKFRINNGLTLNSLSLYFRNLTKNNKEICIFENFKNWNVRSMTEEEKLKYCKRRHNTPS
In short: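 Using PURExpress in vitro transcription/translation, GST-tagged yeast transcription factors were made in full-length or DNA-binding-domain form. These were applied at about 100-200 nM to double-stranded universal all-10-mer Agilent arrays, and bound protein was detected with fluorescent anti-GST. Scans were normalised with masliner before the Universal PBM Analysis Suite assigned E-scores to ungapped eight-base words pooled with their reverse complements.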

Sequence	PBM E-score
GGTTGGTA	-0.152
AAAGCAGG	0.0327
GGTCTCTA	-0.154
AGCATAGC	-0.197
CGCTACCG	0.0476
AGCGATCA	0.0825
GGAGTAAC	-0.116
CAGCGCGA	-0.0776
ACTTCTTA	0.104
TACTGAGA	-0.0843
AAGTTCCG	0.0935
GTGCAGGA	0.0287
AAACGGGA	0.145
AAAAATCG	0.0488
AAGCTCCT	-0.0172
CAGCTCTA	-0.097
CTATGATA	-0.125
GCCCCGAA	0.126
CAGTCTAA	0.106
TCGGTAGA	0.0482
GGCTAGCC	-0.447
ACGGGCTG	-0.0959

Sequence	PBM E-score
AGTTAACG	-0.00946
TGACCCCA	-0.0436
GGGGGGCA	-0.0602
GGCCGTTA	0.0646
CTTCCATA	0.236
CAGGAAGG	0.184
CAGGTAGA	-0.0481
AGATGATG	0.0498
ACCCCAGT	0.0219
GTCGTTTA	0.0289
CCTTCCAC	0.208
AATTACCT	-0.264
CTTAGCTC	-0.0718
GGGCATTA	-0.0795
GCTCACTA	-0.211
CTTAGACC	-0.0765
ACCGGCAC	0.143
ACAGTGAG	-0.152
AGAGGGAG	0.0729
AAAATCTT	-0.0416
CCAGCGCA	-0.0884
GTTACAAA	0.0591

Sequence	PBM E-score
AAGGTACC	0.0237
TACCCTCA	-0.0455
GCCCAGTA	0.11
AGGGGCTC	-0.0666
ATGGTAGC	-0.135
GACGAACC	-0.0115
ACTTGTAC	0.0885
CCTCTTCC	-0.142
GAGGCACA	0.0667
AGGAGGCG	-0.0375
CGCGGTTC	-0.00972
TAAGCGTA	-0.214
CAGATACA	0.0958
GATAACGC	0.0645
AGGCCAGC	-0.196
CTCAAGTA	-0.035
ACCCCCCC	-0.213
ACCCCGGC	-0.0658
ACCAAAAT	0.177
CATGCATC	-0.0542
CGATAACG	-0.121
ACGTTTAT	-0.0156

Sequence	PBM E-score
AGCAGACG	0.0519
GTCTTTGA	0.0325
CCACGATC	0.114
CGCTGCCA	0.185
CCTGCGGA	0.00368
CAACATCA	-0.00816
TAGGTACA	-0.158
ACAGGGTA	-0.185
GGGGGGGA	-0.345
AAGTAACG	-0.139
AAGTTAGT	-0.2
GGGGGTAA	-0.108
AGGCGTTC	0.0118
TATAGACA	0.00015
GTATGAAA	0.0292
ATTCGAGC	-0.138
GGATTGAA	-0.19
GATGAGGA	-0.00884
AACAGGGT	-0.0823
CCCCTGCC	-0.207
